Legend:
CLEC12A Q form = biological target: T1, CLEC12A Q form (Homo sapiens, UniProt Q5QGZ9, K244Q); assay: Flow cytometry binding to HEK-293T cells transfected with CLEC12A amino acid 254 Q version; conditions: FIG. 19
T1 construct: transfected with full-length CLEC12A (UniProt Q5QGZ9-1) cDNAs; expressed in transfected cells; host or cells: HEK-293T
T1 sequence (Q5QGZ9 1-275 isoform Q5QGZ9-1 K254Q): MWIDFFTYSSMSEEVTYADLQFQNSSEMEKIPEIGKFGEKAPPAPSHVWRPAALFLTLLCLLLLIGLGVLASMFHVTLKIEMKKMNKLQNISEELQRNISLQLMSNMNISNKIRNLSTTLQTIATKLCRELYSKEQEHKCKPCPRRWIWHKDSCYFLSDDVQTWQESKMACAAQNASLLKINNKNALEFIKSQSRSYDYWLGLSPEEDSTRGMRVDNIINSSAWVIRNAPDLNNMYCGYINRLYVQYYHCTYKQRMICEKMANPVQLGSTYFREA
Method: (§1) Given the unique binding properties of VHH clone 2H3 relative to the anti-CLEC12A scFv we tested the binding properties of a biparatopic fusion protein containing both the VHH clone 2H3 and an anti-CLEC12A scFv. HEK-293T cells were transfected with full-length CLEC12A (UniProt Q5QGZ9-1) cDNAs expressing the amino acid 254 “K” version of CLEC12A (GenScript) or a version with “Q” at this position generated by mutagenesis. The cells were removed with Accutase and washed with PBS, suspended in 50 μL FACS buffer (FB, PBS+1% BSA and 0.1% sodium azide) and blocked with human Fc block (Becton Dickinson) at room temperature for 10 minutes. Then, 50 μl of the purified fusion proteins #186, #330 or #357 diluted in FACS buffer (starting at 3 μg/ml with 3 fold dilutions) were added. The cell/fusion protein mixture was incubated for 30 minutes at 4° C. and then washed twice with FACS buffer. The cells were suspended in 100 μl of FACS buffer, stained with HIB19-PE (BioLegend […]), and incubated for 30 minutes at 4° C. The cells were washed twice with FACS buffer, fixed with a final concentration of 1% PFA in PBS (Thermo Scientific) and then analyzed by flow cytometry.

CLEC12A K form = biological target: T2, CLEC12A K form (Homo sapiens, UniProt Q5QGZ9); assay: Flow cytometry binding to HEK-293T cells transfected with CLEC12A amino acid 254 K version; conditions: FIG. 19
T2 construct: transfected with full-length CLEC12A (UniProt Q5QGZ9-1) cDNAs; host or cells: HEK-293T
T2 sequence (Q5QGZ9 1-275 isoform Q5QGZ9-1): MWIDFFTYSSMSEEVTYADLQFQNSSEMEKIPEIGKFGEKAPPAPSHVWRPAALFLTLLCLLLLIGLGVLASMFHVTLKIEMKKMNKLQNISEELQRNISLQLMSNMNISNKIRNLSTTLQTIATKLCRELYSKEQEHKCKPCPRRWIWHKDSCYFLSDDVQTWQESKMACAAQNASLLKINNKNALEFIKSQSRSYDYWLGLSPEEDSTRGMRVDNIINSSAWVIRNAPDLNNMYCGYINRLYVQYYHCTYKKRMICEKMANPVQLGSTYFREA
Method: as §1

CLEC12A = assay: ELISA binding of fusion proteins (FMC63 coat, HRP-anti-His detection); parameters: species or system human; conditions: purified fusion protein, Table 8
Method: The binding of the biparatopic fusion proteins to CLEC12A was also examined by ELISA. […] The plate was left to incubate overnight at 4° C. The coated plate was blocked with TBS/0.3% nonfat dry milk (NFD) for 60 minutes at RT.

[1] = test system: CLL-1 positive U937 cells; assay: Flow cytometry binding of fusion proteins to U937 cells (FMC63-PE detection); parameters: species or system human; conditions: purified fusion proteins, FIG. 14
Method: The ability of an expressed biparatopic construct comprising the fusion protein containing a CD19 variant, an anti-CLL-1 scFv, and an anti-CLL-1 VHH (#357) to bind CLL-1 positive U937 cells was evaluated relative to the binding of an expressed construct containing a fusion protein comprised of a CD19 variant and an anti-CLL-1 VHH (#330) and an expressed construct containing a fusion protein comprised of a wild type CD19 and an anti-CLL-1 scFv (#186). […] Approximately 5×10^5 cells were aliquoted per sample. The cells were spun, washed with FB, and then suspended in 100 μl of the biparatopic or monospecific fusion protein dilution (supernatant or purified starting at 10 μg/ml) in FB. The cell/fusion protein mixture was incubated for 30 minutes at 4° C. and then washed 2× with FB. […] After washing 2× with FB, the cells were fixed with a final concentration of 1% PFA in PBS (Thermo Scientific) and then analyzed by flow cytometry (Accuri C6, Becton-Dickinson).
To further confirm the binding and cytotoxicity capabilities of an expressed biparatopic fusion protein comprising a CD19 variant, an anti-CLL-1 scFv, and an anti-CLL-1 VHH, a construct was generated with the same features as construct #357 but lacking the HIS tag. […] The cells were washed twice with FACS buffer, fixed with a final concentration of 1% PFA in PBS (Thermo Scientific) and then analyzed by flow cytometry. […]

[2] = test system: CLEC12A-positive cell line AML5; assay: Flow cytometry binding of fusion proteins to OCI-AML-5 cells; parameters: species or system human; conditions: FIG. 16A
Method: To further confirm the binding and cytotoxicity capabilities of an expressed biparatopic fusion protein comprising a CD19 variant, an anti-CLL-1 scFv, and an anti-CLL-1 VHH, a construct was generated with the same features as construct #357 but lacking the HIS tag. U937 (ATCC) and OCI-AML-5 (DSMZ) cells were cultured as detailed by the supplier. The cells were washed with PBS, suspended in 50 μl FACS buffer (PBS+1% BSA and 0.1% sodium azide) and blocked with human Fc block (Becton Dickinson) at room temperature for 10 minutes. Then, 50 μl of the fusion protein, #357 or #518, starting at 1 μg/ml with 3 fold dilutions in FACS buffer was added. The cell/fusion protein mixture was incubated for 30 minutes at 4° C. and then washed twice with FACS buffer. The cells were suspended in 100 μl of FACS buffer, stained with FMC63-PE (Millipore 5 l/test), and incubated for 30 minutes at 4° C. The cells were washed twice with FACS buffer, fixed with a final concentration of 1% PFA in PBS (Thermo Scientific) and then analyzed by flow cytometry.

U937 cells = assay: CAR-CD19 T cell cytotoxicity bridged by purified fusion protein, luciferase U937 cells; format: cell-based; conditions: E:T 10:1, 48 hours, FIG. 16C
Method: Several fusion proteins were purified and evaluated for their ability to bridge killing of CLL-1 expressing cells by CAR-T cells that target CD19. Luciferase was introduced to U937 cells and […] by lentiviral transduction. On day 1 U937 cells were seeded at 1×10^4 per well of a round-bottom 96 well plate (Thermo Fisher) or 293T-CLL-1 cells were seeded in a flat bottom plate in cell culture media (RPMI 1640, 10% FBS). On day 2, the fusion proteins #357, #330 and #321 were added at 0.2 μg/ml (20 ng/well) with serial 3 fold dilutions where indicated, then left to incubate at 37° C. for 1 hour using the cell culture incubator. […]
On day 3, the plate was spun at 550 RCF for 5 minutes and rinsed with PBS then spun again to remove the PBS. […] The injector added 100 μl of Luciferase assay reagent per well, then the well was read immediately. The plate was then advanced to the next well for a repeat of the inject-then-read process. […]
The % cell death (aka cytotoxicity) was calculated as follows:
% killing=[1−luc reading (experimental wells)/luc reading (tumor cells without CAR T cells)]×100. […]
To test cytoxicity, luciferase labeled Molm14 or U937 cells were targeted for cytotoxic killing using a CAR19 T cell preparation and the purified proteins #330, #410 and #440 added in a dose titration. […] The plates were read in a luminometer with an injector (Glomax Multi Detection System, Promega). […]

B1: #357: biparatopic fusion protein containing a CD19 variant, an anti-CLL-1 scFv, and an anti-CLL-1 VHH; SEQ ID NO:307 (protein)
chain: MEFGLSWVFLVALFRGVQCDMAQVQLQESGPGLVKPSETLSLTCVVSGGSISSSNWWSWVRQPPGKGLEWIGEIYHSGSPDYNPSLKSRVTISVDKSRNQFSLKLSSVTAADTAVYYCAKVSTGGFFDYWGQGTLVTVSSGGGGSGGGGSGGGGSEIELTQSPSSLSASVGDRVTIT[about 80 residues left out]FGPGTKVEIKRTGGGGSGGGGSGGGGSGGGGSQVQLQESGGGLVQAGGSLRLSCVASGSIRSINVMGWYRQAPGKQRELVAACASDGNTYYADSVKGRFTISRDNAEKTVYLQMNNLKPDDTAVYYCDANSRGNYYSGQGTQVTVSSTSGPGGQGAGGGGSGGGGSGGGGSGGGGSPEEPLVVKVEEGDTAALWCLKGTSDGPTQQLTWSRESPLKPFLKYSLGVPGLGVHVRPDAISVVIRNVSQQMGGFYLCQPGPPSEKAWQPGWTVNVEGSGELFRWNVSDLGGLGCGLKNRSSEGPSSPSGKLMSPKLYVWAKDRPEIWEGEPPCLPPRDSLNQSLSRDLTVAPGSTLWLSCGVPPDSVSRGPLSWTHVHPKGPKSLLSLELKDDRPARDMWVMGTSLMLPRATAQDAGKWYCHRGNLTMSFHLEITARPSRHHHHHH
B1 was tested, and the “binding to the Q form of CLEC12A” value (CLEC12A Q form) was “binds very well”, the “binding to the K form of CLEC12A” value (CLEC12A K form) was “binds very well” and the EC50 (CLEC12A) was 0.01 nM. The “binding to U937 cells, comparison” value [1] was “binds better than the fusion protein comprising an anti-CLL-1 VHH”, the “binding by FACS on AML5, HIS-tagged versus no HIS-tag” value [2] was “equivalent binding” and the “bridging of CAR-CD19 T cells to U937 target cells, cytotoxicity” value (U937 cells) was “potent cytotoxicity”.

From patent US20220387487A1, “COMPOSITIONS AND METHODS FOR TREATMENT OF CANCER” (Aleta Biotherapeutics Inc., priority 2019, published 2022)
